Screen size: about 110,000 compounds; about 40 (0.04%) were called active. The shares of active, inactive and inconclusive entries below differ from those in the screen. Calls follow the shape of the dose curve; as a rule, active = well fitted curve in the direction sought with a large enough effect in the signal ratio (not every such curve was filed as active); inconclusive = small, poorly fitted or top-dose-only effect, or a change in a side signal; inactive = flat fitted curve, though single readings scatter; the % refers to the signal ratio. Where the call is inconclusive, the potency comes from a doubtful curve fit.
Assay: IkB Signaling;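 as to IkBa stabilization activation: 0% = basal untreated cells and 100% = reference inhibitor full response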
Conditions: ABC-DLBCL IkBa-CBG/CBR dual luciferase ratio (green luciferase fused to IkBa over red control in OCI-Ly3 lymphoma cells), 4 h, scaled: untreated 0%
In short: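 Luminescence ratio of IκBα-fused green versus native red beetle luciferase in OCI-Ly3 cells, 4 h post-doxycycline with compound; red signal alone, scaled from basal (0%) to zero light (-100%), flagged nonspecific or cytotoxic effects.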

[1] = IkBa stabilization activation: at 57.1 µM (top of the series), proteasome inhibitor 100% unless noted
Potency is read from the fitted curve at half-maximal effect.

## C=CCn1c(O)c(C(C)=Nc2ccc(N(CC)CC)cc2)c(=O)[nH]c1=O
[1]
  IkBa stabilization activation: inactive

## CN(C)CCCc1c[nH]c2ccccc12
[1]
  IkBa stabilization activation: inactive: -0.299% [at 11.4 µM, scaled: untreated 0%, proteasome inhibitor 100%]

## ClCCOCCCl
[1]
  IkBa stabilization activation: inactive

## Cc1ccc(N2C(=O)NC(=O)C3(Cc4ccccc4N4CCN(c5ccccc5)CC43)C2=O)cc1 (stereo not given)
[1]
  Potency: inconclusive: 2.51 µM [signal inhibitor, full curve]

## c1ccc(CCCN2CCN(CCOC(c3ccccc3)c3ccccc3)CC2)cc1
[1]
  IkBa stabilization activation: inconclusive: 0.723% [signal inhibitor]
At 57.1 µM (top of the series), proteasome inhibitor 100%
  IkBa stabilization activation: inactive: -4.2%

## O=c1c2ccccc2nc(/C=C\c2ccc(F)cc2)n1-c1ccccc1F
[1]
  IkBa stabilization activation: inconclusive: 8.53% [signal inhibitor]

## Cc1cccc(NC(=O)Cn2cc(C(=O)c3ccccc3)c3ccccc32)c1
[1]
  IkBa stabilization activation: inconclusive: 14.8% [signal inhibitor]

## C[N+]1(C)CCO[C@](O)(c2ccc(-c3ccc([C@]4(O)C[N+](C)(C)CCO4)cc3)cc2)C1
[1]
  IkBa stabilization activation: inactive

## O=C(O)[C@H]1[C@H](C(=O)O)[C@H]2CC[C@@H]1O2
[1]
  IkBa stabilization activation: inconclusive: 14.2% [signal activator]

## CC[n+]1c(-c2ccccc2)c2cc(N)ccc2c2ccc(N)cc21
[1]
  IkBa stabilization activation: inconclusive: -3.73% [signal inhibitor]

## COc1ccc(Cl)cc1NC(=O)CN1C(=O)CN=C(c2ccccc2)c2cc(Cl)ccc21
[1]
  IkBa stabilization activation: inconclusive: 2.44% [signal inhibitor]

## O=c1c2ccccc2nc(/C=C/c2cccc3ccccc23)n1-c1ccccc1Cl
[1]
  IkBa stabilization activation: inconclusive: 2.2% [signal inhibitor]

## C=CCn1c(O)c(C(CC)=Nc2cc(OC)ccc2OC)c(=O)[nH]c1=O
[1]
  IkBa stabilization activation: inactive

## Fc1ccc2c(c1)nnn2C1CCN(Cc2nnnn2CCc2ccccc2)CC1
[1]
  IkBa stabilization activation: inconclusive: 3.92% [signal inhibitor]

## C(=C/c1ccccc1)/CN1CCN(CCOC(c2ccccc2)c2ccccc2)CC1
[1]
  IkBa stabilization activation: inconclusive: 0.319% [signal inhibitor]

## COc1ccc2[nH]cc(C3=CCNCC3)c2c1
[1]
  IkBa stabilization activation: inconclusive: 0.354% [signal inhibitor]

## Cc1ccc(-n2c(/C=C/c3ccc(Br)s3)nc3ccccc3c2=O)cc1
[1]
  IkBa stabilization activation: inconclusive: 1.65% [signal inhibitor]

## O=C(c1ccccc1)c1cn(CC(=O)N2CCCC2)c2ccccc12
[1]
  IkBa stabilization activation: inactive

## COc1cc2c(cc1O)-c1c(O)c(OC)cc3c1[C@H](C2)N(C)CC3
[1]
  IkBa stabilization activation: inactive: -1.37% [at 11.4 µM, scaled: untreated 0%, proteasome inhibitor 100%]

## Cc1cccc(-n2c(/C=C/c3ccccc3O)nc3ccccc3c2=O)c1
[1]
  IkBa stabilization activation: inconclusive: 20.7% [signal inhibitor]

## CCCCn1c(O)c(C(CC)=NCCCN(C)C)c(=O)[nH]c1=O
[1]
  IkBa stabilization activation: inactive

## CCCCCCCC(=O)Cl
[1]
  IkBa stabilization activation: inactive

## CC1=C(O)C(=O)[C@H]2O[C@@H]2C1=O
[1]
  Potency: inconclusive: 39.8 µM [signal activator, partial curve]

## O=C(O)[C@@H](O)[C@@H](O)[C@@H]1[O][Sb][O][C@@H]1CO
[1]
  IkBa stabilization activation: inactive: 14.8% [at 11.4 µM, scaled: untreated 0%, proteasome inhibitor 100%]

## O=C(CCCN1CCC2(CC1)C(=O)N(CCc1ccc(N=C=S)cc1)CN2c1ccccc1)c1ccc(F)cc1
[1]
  IkBa stabilization activation: inactive

## O=c1c2ccccc2nc(/C=C\c2ccccc2F)n1-c1ccc(O)cc1
[1]
  IkBa stabilization activation: inconclusive: 3.1% [signal inhibitor]

## Nc1c(C(=O)OCC2CCCO2)c2nc3ccccc3nc2n1Cc1cccs1 (stereo not given)
[1]
  IkBa stabilization activation: inconclusive: -1.17% [signal inhibitor]

## CCCCn1c(C)c(C(=O)OCC)c2c(CN3CCOCC3)c(O)ccc21
[1]
  IkBa stabilization activation: inactive

## Cc1c(C(c2ccc(Cl)cc2Cl)c2c(O)c3ccccc3oc2=O)c(=O)n(-c2ccccc2)n1C (stereo not given)
[1]
  IkBa stabilization activation: inconclusive: -0.53% [signal inhibitor]

## Cc1noc(C)c1C(=O)N1CCC2(CC1)OCCO2
[1]
  IkBa stabilization activation: inactive

## O=c1[nH]c(=O)n(Cc2ccccc2)c(O)c1C=NCCCn1ccnc1
[1]
  IkBa stabilization activation: inactive

## Nc1ccc(N2CCN(Cc3ccccc3Cl)CC2)c(Cl)c1
[1]
  IkBa stabilization activation: inactive

## COc1ccc(C(=O)Nc2ccc(Cl)cc2C(=O)c2ccccc2)c(OC)c1
[1]
  IkBa stabilization activation: inconclusive: 12.2% [signal inhibitor]

## Cc1ccccc1CN1C(=O)CN=C(c2ccccc2)c2cc(Cl)ccc21
[1]
  IkBa stabilization activation: inconclusive: 0.018% [signal inhibitor]

## Cc1nc2cc(-c3cccc(F)c3)nn2c(C)c1CCC(=O)N1CCC2(CC1)OCCO2
[1]
  Potency: inconclusive: 3.98 µM [signal inhibitor, partial curve]

## CN(C)[C@@H]1C(=O)C(C(N)=O)=C(O)[C@]2(O)C(=O)C3=C(O)c4c(O)cccc4[C@](C)(O)[C@H]3C[C@@H]12
[1]
  IkBa stabilization activation: inactive: 0.383% [at 11.4 µM, scaled: untreated 0%, proteasome inhibitor 100%]

## C=CCn1c(O)c(C(C)=NCc2cc(OC)cc(OC)c2)c(=O)[nH]c1=O
[1]
  IkBa stabilization activation: inactive

## O=C(Cn1cc(C(=O)c2ccccc2F)c2ccccc21)NCc1ccco1
[1]
  IkBa stabilization activation: inactive

## Cc1cc(-n2c(/C=C/c3ccc(Br)s3)nc3ccccc3c2=O)ccc1Br
[1]
  IkBa stabilization activation: inconclusive: 1.99% [signal inhibitor]

## O=S(=O)(Cl)c1ccccc1
[1]
  IkBa stabilization activation: inconclusive: 13.5%

## CC[C@@]12CCCN3CC[C@@]4(c5ccc(OC)c(O)c5N(C(C)=O)[C@H]4CC1)[C@H]32
[1]
  IkBa stabilization activation: inactive: -1.56% [at 11.4 µM, scaled: untreated 0%, proteasome inhibitor 100%]

## COc1cc2c(c(OC)c1OC)-c1ccc(O)c(=O)cc1[C@H](N)CC2
[1]
  IkBa stabilization activation: inactive

## CC[C@H]1CN2CCc3cc(OC)c(OC)cc3[C@H]2C[C@@H]1C[C@H]1NCCc2c1[nH]c1ccc(O)cc21
[1]
  IkBa stabilization activation: inconclusive: -3.06% [signal inhibitor] [at 11.4 µM, scaled: untreated 0%, proteasome inhibitor 100%]

## COc1ccc(NC(=O)CN2C(=O)C(C)N=C(c3ccccc3F)c3cc(Cl)ccc32)c(OC)c1 (stereo not given)
[1]
  IkBa stabilization activation: inconclusive: 3.19% [signal inhibitor]

## CCc1c(C(=O)OC)ncc2[nH]c3cc(OC)c(OC)cc3c12
[1]
  IkBa stabilization activation: inactive

## CCCNC(=O)c1c(N)n(CC2CCCO2)c2nc3ccccc3nc12 (stereo not given)
[1]
  IkBa stabilization activation: inconclusive: 0.38% [signal inhibitor]

## CCCCCCCCCCCC[N+](C)(C)CCOc1ccccc1
[1]
  IkBa stabilization activation: inconclusive: -0.0221% [signal inhibitor]

## CCCCCCCCn1sccc1=O
[1]
  Potency: inconclusive: 7.94 µM [rising, partial curve]

## Nc1ccc(CCN2CCN(c3cccc(C(F)(F)F)c3)CC2)cc1
[1]
  IkBa stabilization activation: inactive

## CC(C)(c1ccc(OC[C@@H]2CO2)cc1)c1ccc(OC[C@H]2CO2)cc1
[1]
  Potency: inconclusive: 39.8 µM [signal inhibitor, single point]

## COC(=O)C1=C(N)Oc2c(c(=O)oc3ccccc23)[C@]12C(=O)N(C)c1ccccc12
[1]
  Potency: inconclusive: 5.01 µM [signal inhibitor, partial curve]

## C[C@@H]1O[C@@H](O[C@H]2C[C@@H](O)[C@@]3(CO)[C@H]4[C@H](O)C[C@]5(C)[C@@H](C6=CC(=O)OC6)CC[C@]5(O)[C@H]4CC[C@@]3(O)C2)[C@@H](O)[C@H](O)[C@H]1O
[1]
  IkBa stabilization activation: inconclusive: 3.84% [signal inhibitor] [at 11.4 µM, scaled: untreated 0%, proteasome inhibitor 100%]

## CN(C(=O)c1ccco1)C1(c2ccccc2Cl)CCCCC1=O (stereo not given)
[1]
  IkBa stabilization activation: inactive

## Clc1ccc(C(c2ccccc2Cl)C(Cl)(Cl)Cl)cc1 (stereo not given)
[1]
  IkBa stabilization activation: inactive

## O=c1[nH]c2ccccc2n1C1CCN(CCCC(c2ccc(F)cc2)c2ccc(F)cc2)CC1
[1]
  IkBa stabilization activation: inactive

## Cc1ccc(-n2c(/C=C/c3ccc(Br)s3)nc3ccccc3c2=O)cc1C
[1]
  IkBa stabilization activation: inconclusive: 0.157% [signal inhibitor]

## CC(=O)[O][Hg][c]1ccccc1
[1]
  Potency: inconclusive: 0.0794 µM [signal inhibitor, full curve, poor fit]

## COc1ccc(OC)c(NC(=O)Cn2cc(C(=O)c3ccccc3F)c3ccccc32)c1
[1]
  IkBa stabilization activation: inactive

## O=[N+]([O-])c1ccccc1O
[1]
  IkBa stabilization activation: inactive

## CCSc1cc(C2C(C#N)=C(N)Oc3n[nH]c(C)c32)c(C)o1 (stereo not given)
[1]
  Potency: inconclusive: 20 µM [rising, partial curve]

## O=C(CSc1ccccc1)N1CCC2(CC1)OCCO2
[1]
  IkBa stabilization activation: inactive

## O=C(O)CN1CCN(CC(=O)O)CC(=O)[O][Hg][O]C(=O)C1
[1]
  Potency: active: 3.98 µM

## Cc1c(C(c2ccc(F)cc2)c2c(O)c3ccccc3oc2=O)c(=O)n(-c2ccccc2)n1C (stereo not given)
[1]
  IkBa stabilization activation: inconclusive: 4.87% [signal inhibitor]

## CN(C)CP(=O)(O)CN(C)C=O
[1]
  IkBa stabilization activation: inactive

## O=C1CC(c2c(F)cccc2Cl)c2c(c3ccccc3oc2=O)O1 (stereo not given)
[1]
  IkBa stabilization activation: inconclusive: 0.0783% [signal inhibitor]

## NC[C@H](O)c1cc(O)c(O)cc1F
[1]
  IkBa stabilization activation: inactive

## CN[C@H]1[C@H](C)O[C@@H](O[C@@H]2C/C=C(/C)C/C(C)=C\C=C/CC[C@@H](C)CNC(=O)/C=C\C=C/[C@H]2C)C[C@@H]1O
[1]
  IkBa stabilization activation: inactive: 0.579% [at 11.4 µM, scaled: untreated 0%, proteasome inhibitor 100%]

## C[C@@]12CC[C@H]3[C@@H](CC[C@@H]4C[C@H](O)CC[C@]43C)[C@H]1CC[C@H]2O
[1]
  IkBa stabilization activation: inactive

## CCCC[N+]1(C)[C@@H]2CC(OC(=O)[C@@H](CO)c3ccccc3)C[C@H]1[C@H]1O[C@H]12 (stereo not given in full)
[1]
  IkBa stabilization activation: inactive

From PubChem BioAssay AID445 (National Center for Advancing Translational Sciences (NCATS), 2006)
